± gives the standard deviation of the averaged measurements. Laboratory Escherichia coli strains with one amino-acid change in an essential protein, pooled on minimal glucose agar with carbenicillin or gentamicin at twice the control MIC (plus kanamycin and chloramphenicol for the plasmids), 48 h. Fold change of barcode share against drug-free plates; higher = less susceptible. Active = above 20 in both replicates (the paper's putatively resistant). '<' = one read or none on drug, '>' = one read or none on a drug-free plate. Shares are relative, so most strains fall below 1 when a few take over. Listed are strains with at least 15 reads on both drug-free plates, and hits; most hits rest on fewer reference reads. Replicate rank correlation about 0.5. Edits are read from barcodes. A value given as a limit tells only on which side of the number the result lay.

The target of the data set is Escherichia coli (laboratory strain). Briefly: barcode share on antibiotic plates over drug-free plates; higher = less susceptible. How it is done:
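A pool of E. coli strains, each edited to carry one amino-acid change in an essential protein, was grown for 48 h on minimal glucose agar with or without antibiotic; strain barcodes were sequenced; mean of two replicates.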

Where [1] appears, read: antibiotic: carbenicillin, 2× MIC (3.1 µg/mL).
Where [2] appears, read: antibiotic: gentamicin, 2× MIC (MIC 0.45 µg/mL).

B1: carA L206Q (protein)
chain: MIKSALLVLEDGTQFHGRAIGATGSAVGEVVFNTSMTGYQEILTDPSYSRQIVTLTYPHIGNVGTNDADEESSQVHAQGLVIRDLPLIASNFRNTEDLSSYLKRHNIVAIADIDTRKLTRLLREKGAQNGCIIAGDNPDAALALEKARAFPGLNGMDLAKEVTTAEAYSWTQGSWTLTGGLPEAKKEDELPFHVVAYDFGAKRNIQRMLVDRGCRLTIVPAQTSAEDVLKMNPDGIFLSNGPGDPAPCDYAITAIQKFLETDIPVFGICLGHQLLALASGAKTVKMKFGHHGGNHPVKDVEKNVVMITAQNHGFAVDEATLPANLRVTHKSLFDGTLQGIHRTDKPAFSFQGHPEASPGPHDAAPLFDHFIELIEQYRKTAK
For B1, the “fold change of barcode share” value is, setting by setting: under setting [1], 0.468 ± 0.3; under setting [2], under 0.0119.

B2: carA L7A (protein)
chain: MIKSALAVLEDGTQFHGRAIGATGSAVGEVVFNTSMTGYQEILTDPSYSRQIVTLTYPHIGNVGTNDADEESSQVHAQGLVIRDLPLIASNFRNTEDLSSYLKRHNIVAIADIDTRKLTRLLREKGAQNGCIIAGDNPDAALALEKARAFPGLNGMDLAKEVTTAEAYSWTQGSWTLTGGLPEAKKEDELPFHVVAYDFGAKRNILRMLVDRGCRLTIVPAQTSAEDVLKMNPDGIFLSNGPGDPAPCDYAITAIQKFLETDIPVFGICLGHQLLALASGAKTVKMKFGHHGGNHPVKDVEKNVVMITAQNHGFAVDEATLPANLRVTHKSLFDGTLQGIHRTDKPAFSFQGHPEASPGPHDAAPLFDHFIELIEQYRKTAK
Consider B2, for which the “fold change of barcode share” value under setting [1] amounted to 3.03 ± 0.24.

B3: carA L206D (protein)
chain: MIKSALLVLEDGTQFHGRAIGATGSAVGEVVFNTSMTGYQEILTDPSYSRQIVTLTYPHIGNVGTNDADEESSQVHAQGLVIRDLPLIASNFRNTEDLSSYLKRHNIVAIADIDTRKLTRLLREKGAQNGCIIAGDNPDAALALEKARAFPGLNGMDLAKEVTTAEAYSWTQGSWTLTGGLPEAKKEDELPFHVVAYDFGAKRNIDRMLVDRGCRLTIVPAQTSAEDVLKMNPDGIFLSNGPGDPAPCDYAITAIQKFLETDIPVFGICLGHQLLALASGAKTVKMKFGHHGGNHPVKDVEKNVVMITAQNHGFAVDEATLPANLRVTHKSLFDGTLQGIHRTDKPAFSFQGHPEASPGPHDAAPLFDHFIELIEQYRKTAK
Consider B3, for which the “fold change of barcode share” value reads like this: under setting [1], 0.458 ± 0.069; under setting [2], 0.0187 ± 0.014.

B4: cdsA I7A (protein)
chain: MLKYRLASAFVLIPVVIAALFLLPPVGFAIVTLVVCMLAAWEWGQLSGFTTRSQRVWLAVLCGLLLALMLFLLPEYHRNIHQPLVEISLWASLGWWIVALLLVLFYPGSAAIWRNSKTLRLIFGVLTIVPFFWGMLALRAWHYDENHYSGAIWLLYVMILVWGADSGAYMFGKLFGKHKLAPKVSPGKTWQGFIGGLATAAVISWGYGMWANLDVAPVTLLICSIVAALASVLGDLTESMFKREAGIKDSGHLIPGHGGILDRIDSLTAAVPVFACLLLLVFRTL
For the protein B4, the “fold change of barcode share” value under setting [1] was 0.338 ± 0.076 and the “fold change of barcode share” value under setting [2] was under 0.00573.

B5: cdsA I7Q (protein)
chain: MLKYRLQSAFVLIPVVIAALFLLPPVGFAIVTLVVCMLAAWEWGQLSGFTTRSQRVWLAVLCGLLLALMLFLLPEYHRNIHQPLVEISLWASLGWWIVALLLVLFYPGSAAIWRNSKTLRLIFGVLTIVPFFWGMLALRAWHYDENHYSGAIWLLYVMILVWGADSGAYMFGKLFGKHKLAPKVSPGKTWQGFIGGLATAAVISWGYGMWANLDVAPVTLLICSIVAALASVLGDLTESMFKREAGIKDSGHLIPGHGGILDRIDSLTAAVPVFACLLLLVFRTL
For the protein B5, the “fold change of barcode share” value turned out to be 0.268 ± 0.057 under setting [1] and 0.00765 ± 0.0039 under setting [2].

B6: cdsA I7W (protein)
chain: MLKYRLWSAFVLIPVVIAALFLLPPVGFAIVTLVVCMLAAWEWGQLSGFTTRSQRVWLAVLCGLLLALMLFLLPEYHRNIHQPLVEISLWASLGWWIVALLLVLFYPGSAAIWRNSKTLRLIFGVLTIVPFFWGMLALRAWHYDENHYSGAIWLLYVMILVWGADSGAYMFGKLFGKHKLAPKVSPGKTWQGFIGGLATAAVISWGYGMWANLDVAPVTLLICSIVAALASVLGDLTESMFKREAGIKDSGHLIPGHGGILDRIDSLTAAVPVFACLLLLVFRTL
On to B6, for which the “fold change of barcode share” value by setting is: under setting [1], 0.495 ± 0.14; under setting [2], 0.00616 ± 0.0028.

B7: tyrS V72A (protein)
chain: MASSNLIKQLQERGLVAQVTDEEALAERLAQGPIALYCGFDPTADSLHLGHLVPLLCLKRFQQAGHKPVALAGGATGLIGDPSFKAAERKLNTEETVQEWVDKIRKQVAPFLDFDCGENSAIAANNYDWFGNMNVLTFLRDIGKHFSVNQMINKEAVKQRLNREDQGISFTEFSYNLLQGYDFACLNKQYGVVLQIGGSDQWGNITSGIDLTRRLHQNQVFGLTVPLITKADGTKFGKTEGGAVWLDPKKTSPYKFYQFWINTADADVYRFLKFFTFMSIEEINALEEEDKNSGKAPRAQYVLAEQVTRLVHGEEGLQAAKRITECLFSGSLSALSEADFEQLAQDGVPMVEMEKGADLMQALVDSELQPSRGQARKTIASNAITINGEKQSDPEYFFKEEDRLFGRFTLLRRGKKNYCLICWK
On to B7, for which the “fold change of barcode share” value reads like this: under setting [1], 0.487 ± 0.047; under setting [2], under 0.00349.

B8: tyrS V72D (protein)
chain: MASSNLIKQLQERGLVAQVTDEEALAERLAQGPIALYCGFDPTADSLHLGHLVPLLCLKRFQQAGHKPVALDGGATGLIGDPSFKAAERKLNTEETVQEWVDKIRKQVAPFLDFDCGENSAIAANNYDWFGNMNVLTFLRDIGKHFSVNQMINKEAVKQRLNREDQGISFTEFSYNLLQGYDFACLNKQYGVVLQIGGSDQWGNITSGIDLTRRLHQNQVFGLTVPLITKADGTKFGKTEGGAVWLDPKKTSPYKFYQFWINTADADVYRFLKFFTFMSIEEINALEEEDKNSGKAPRAQYVLAEQVTRLVHGEEGLQAAKRITECLFSGSLSALSEADFEQLAQDGVPMVEMEKGADLMQALVDSELQPSRGQARKTIASNAITINGEKQSDPEYFFKEEDRLFGRFTLLRRGKKNYCLICWK
B8: the “fold change of barcode share” value runs as follows: under setting [1], 0.37 ± 0.087; under setting [2], 0.0121 ± 0.0034.

B9: tyrS V72Q (protein)
chain: MASSNLIKQLQERGLVAQVTDEEALAERLAQGPIALYCGFDPTADSLHLGHLVPLLCLKRFQQAGHKPVALQGGATGLIGDPSFKAAERKLNTEETVQEWVDKIRKQVAPFLDFDCGENSAIAANNYDWFGNMNVLTFLRDIGKHFSVNQMINKEAVKQRLNREDQGISFTEFSYNLLQGYDFACLNKQYGVVLQIGGSDQWGNITSGIDLTRRLHQNQVFGLTVPLITKADGTKFGKTEGGAVWLDPKKTSPYKFYQFWINTADADVYRFLKFFTFMSIEEINALEEEDKNSGKAPRAQYVLAEQVTRLVHGEEGLQAAKRITECLFSGSLSALSEADFEQLAQDGVPMVEMEKGADLMQALVDSELQPSRGQARKTIASNAITINGEKQSDPEYFFKEEDRLFGRFTLLRRGKKNYCLICWK
Take B9: the “fold change of barcode share” value was determined as 0.348 ± 0.14 under setting [1] and 0.00489 ± 0.0026 under setting [2].

B10: tyrS V72W (protein)
chain: MASSNLIKQLQERGLVAQVTDEEALAERLAQGPIALYCGFDPTADSLHLGHLVPLLCLKRFQQAGHKPVALWGGATGLIGDPSFKAAERKLNTEETVQEWVDKIRKQVAPFLDFDCGENSAIAANNYDWFGNMNVLTFLRDIGKHFSVNQMINKEAVKQRLNREDQGISFTEFSYNLLQGYDFACLNKQYGVVLQIGGSDQWGNITSGIDLTRRLHQNQVFGLTVPLITKADGTKFGKTEGGAVWLDPKKTSPYKFYQFWINTADADVYRFLKFFTFMSIEEINALEEEDKNSGKAPRAQYVLAEQVTRLVHGEEGLQAAKRITECLFSGSLSALSEADFEQLAQDGVPMVEMEKGADLMQALVDSELQPSRGQARKTIASNAITINGEKQSDPEYFFKEEDRLFGRFTLLRRGKKNYCLICWK
With B10, the “fold change of barcode share” value came to 0.372 ± 0.085 under setting [1] and 0.00949 ± 0.01 under setting [2].

B11: ispU V155A (protein)
chain: MMLSATQPLSEKLPAHGCRHVAIIMDGNGRWAKKQGKIRAFGHKAGAKSVRRAVSFAANNGIEALTLYAFSSENWNRPAQEVSALMELFVWALDSEVKSLHRHNVRLRIIGDTSRFNSRLQERIRKSEALTAGNTGLTLNIAANYGGRWDIVQGARQLAEKVQQGNLQPDQIDEEMLNQHVCMHELAPVDLVIRTGGEHRISNFLLWQIAYAELYFTDVLWPDFDEQDFEGALNAFANRERRFGGTEPGDETA
For the protein B11, the “fold change of barcode share” value amounted to 0.562 ± 0.087 under setting [1] and 0.264 ± 0.31 under setting [2].

B12: ispU L206Q (protein)
chain: MMLSATQPLSEKLPAHGCRHVAIIMDGNGRWAKKQGKIRAFGHKAGAKSVRRAVSFAANNGIEALTLYAFSSENWNRPAQEVSALMELFVWALDSEVKSLHRHNVRLRIIGDTSRFNSRLQERIRKSEALTAGNTGLTLNIAANYGGRWDIVQGVRQLAEKVQQGNLQPDQIDEEMLNQHVCMHELAPVDLVIRTGGEHRISNFLQWQIAYAELYFTDVLWPDFDEQDFEGALNAFANRERRFGGTEPGDETA
As for B12, the “fold change of barcode share” value under setting [1] was found to be 0.354 ± 0.35 and the “fold change of barcode share” value under setting [2] is under 0.0168.

B13: ispU V155W (protein)
chain: MMLSATQPLSEKLPAHGCRHVAIIMDGNGRWAKKQGKIRAFGHKAGAKSVRRAVSFAANNGIEALTLYAFSSENWNRPAQEVSALMELFVWALDSEVKSLHRHNVRLRIIGDTSRFNSRLQERIRKSEALTAGNTGLTLNIAANYGGRWDIVQGWRQLAEKVQQGNLQPDQIDEEMLNQHVCMHELAPVDLVIRTGGEHRISNFLLWQIAYAELYFTDVLWPDFDEQDFEGALNAFANRERRFGGTEPGDETA
In the case of B13, the “fold change of barcode share” value is, setting by setting: under setting [1], 0.0651 ± 0.038; under setting [2], 0.0124 ± 0.0014.

B14: ispU V192A (protein)
chain: MMLSATQPLSEKLPAHGCRHVAIIMDGNGRWAKKQGKIRAFGHKAGAKSVRRAVSFAANNGIEALTLYAFSSENWNRPAQEVSALMELFVWALDSEVKSLHRHNVRLRIIGDTSRFNSRLQERIRKSEALTAGNTGLTLNIAANYGGRWDIVQGVRQLAEKVQQGNLQPDQIDEEMLNQHVCMHELAPVDLAIRTGGEHRISNFLLWQIAYAELYFTDVLWPDFDEQDFEGALNAFANRERRFGGTEPGDETA
B14: the “fold change of barcode share” value is 0.13 ± 0.13 under setting [1] and under 0.0132 under setting [2].

These data come from the supplement of paper PMC11876631.
